This is an account of results in the supplement of paper PMC9446081.

The structures appear in SMILES notation. About 220 (0.56%) of roughly 39,000 compounds showed activity. The list shows a part of the results.
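Note: static incubation at 37 °C against the wild-type strain, values averaged over two biological replicates.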

The subject of the experiment is Escherichia coli K-12 BW25113. The experiment can be described thus: relative growth (OD600 normalised to plate interquartile mean) (fraction); higher = less growth inhibition, active = 0.2 or less. The note with it: 50 µM; LB; incubation time: overnight (16-24 h).
Take `COc1ccc(CN(C)C[C@@H]2Oc3ccc(NC(=O)Nc4cccc5ccccc45)cc3CC(=O)N([C@H](C)CO)C[C@@H]2C)cc1`: the relative growth was inactive: 0.98.
As for `C[C@@H]1CN([C@H](C)CO)C(=O)c2cc(NS(=O)(=O)c3ccc(F)cc3)ccc2O[C@@H](C)CCCCO[C@@H]1CN(C)C(=O)NC1CCCCC1`, the figure is inactive: 1.03; as for `Cc1noc(C)c1NC(=O)N(C)C[C@@H]1Oc2c(NC(=O)Nc3cccc4ccccc34)cccc2C(=O)N([C@@H](C)CO)C[C@@H]1C`, inactive: 0.912; as for `Cc1ccc(S(=O)(=O)N(C)C[C@@H]2Oc3ncc(Br)cc3C(=O)N([C@@H](C)CO)C[C@H]2C)cc1`, inactive: 0.991.
As for `C[C@@H]1CN([C@@H](C)CO)C(=O)c2cc(NS(=O)(=O)c3ccc(Cl)cc3)ccc2O[C@H]1CN(C)C(=O)Nc1cccc2ccccc12`, the figure is inactive: 1.
The value for `CO[C@@H]1CN(C)C(=O)c2cc(NS(=O)(=O)c3cn(C)cn3)ccc2OC[C@@H](C)N(CCC(F)(F)F)C[C@@H]1C` was inactive: 0.987; that for `C[C@@H]1CCCCO[C@@H](CN(C)Cc2ccc(Cl)c(Cl)c2)[C@H](C)CN([C@@H](C)CO)C(=O)c2cc(NC(=O)c3ccccc3)ccc2O1` was inactive: 1; that for `COCC#Cc1ccc2c(c1)O[C@H](CN(C)C(=O)c1ccccc1)[C@H](C)CN([C@H](C)CO)S2(=O)=O` was inactive: 0.979.
`C[C@@H]1CN([C@@H](C)CO)C(=O)c2cccc(NC(=O)c3cnccn3)c2O[C@@H]1CN(C)S(=O)(=O)c1cccs1`: the relative growth is inactive: 0.972.
Regarding `C[C@H]1CN([C@@H](C)CO)C(=O)Cc2cc(NS(=O)(=O)c3ccc(Cl)cc3)ccc2O[C@H]1CN(C)Cc1ccc(C(F)(F)F)cc1`, the relative growth is inactive: 1.04.
For `C[C@@H]1CN([C@@H](C)CO)C(=O)c2cc(NC(=O)Cn3cnnn3)ccc2O[C@@H]1CN(C)C(=O)Nc1ccc(C(F)(F)F)cc1`, the relative growth is inactive: 0.963.
The value for `C[C@@H]1CCCCO[C@@H](CN(C)Cc2ccc3c(c2)OCO3)[C@H](C)CN([C@@H](C)CO)C(=O)c2cc(NC(=O)c3ccccc3)ccc2O1` was inactive: 1.01.
`Cn1cnc(S(=O)(=O)N2C[C@H](O)COC[C@H]3O[C@@H](CC(=O)NC4CCC4)CC[C@@H]32)c1`: the relative growth is inactive: 1.
The value for `Cc1noc(C)c1NC(=O)Nc1ccc2c(c1)C(=O)N([C@H](C)CO)C[C@H](C)[C@H](CN(C)Cc1ccc(C(=O)Nc3ccccc3N)cc1)O2` was inactive: 1.01; that for `CNC(=O)CN1CCO[C@H]2CN(C(=O)COC)C[C@@H]21` was inactive: 1; that for `Cc1ccc(S(=O)(=O)Nc2cccc3c2O[C@@H](CN(C)CC2CC2)[C@H](C)CN([C@H](C)CO)C3=O)cc1` was inactive: 1.01.
As to `C[C@@H]1CN([C@@H](C)CO)C(=O)c2cccc(NC(=O)CCCCCC(=O)Nc3ccccc3N)c2O[C@@H]1CN(C)C(=O)Nc1ccc(C(F)(F)F)cc1`, the relative growth is inactive: 0.953.
For `C[C@H]1CN([C@@H](C)CO)C(=O)c2cccc(NC(=O)C3CCCCC3)c2O[C@@H]1CN(C)Cc1ccc(C(=O)Nc2ccccc2N)cc1`, the relative growth is inactive: 1.01.
The value for `COc1cc(C)c(C=CC=CC=CC=CC(=O)O)c(C)c1C` was inactive: 0.797.
Regarding `CC(C)Cc1ccc(CN2CC[C@@H](N)C2)cc1`, the relative growth was inactive: 0.906.
As for `C[C@@H]1CCCCO[C@H](CN(C)Cc2ccc(C(F)(F)F)cc2)[C@@H](C)CN([C@@H](C)CO)C(=O)c2cc(NS(=O)(=O)c3ccc(Cl)cc3)ccc2O1`, the figure is inactive: 1.11.
As for `C[C@@H]1CN([C@H](C)CO)C(=O)c2cccc(NS(=O)(=O)c3ccc(Cl)cc3)c2O[C@@H]1CN(C)S(=O)(=O)c1cn(C)cn1`, the figure is inactive: 0.984.
The value for `COc1ccc(S(=O)(=O)Nc2ccc3c(c2)C(=O)N([C@H](C)CO)C[C@@H](C)[C@H](CN(C)Cc2ccc(C(F)(F)F)cc2)OCCCC[C@H](C)O3)cc1` was inactive: 1.07.
As for `C[C@@H]1CN([C@H](C)CO)C(=O)c2cc(C#CC3(O)CCCC3)cnc2O[C@@H]1CN(C)S(=O)(=O)c1ccc(F)cc1`, the relative growth was inactive: 0.925.
The value for `C[C@@H]1CN([C@H](C)CO)C(=O)Cc2cc(NC(=O)Nc3ccc4c(c3)OCO4)ccc2O[C@H]1CN(C)Cc1ccc(C(=O)Nc2ccccc2N)cc1` was inactive: 1.01.
As for `O=C(Cc1ccncc1)Nc1ccc2c(c1)[C@@H]1C[C@@H](CC(=O)N3CCc4ccccc4C3)O[C@@H](CO)[C@@H]1O2`, the figure is inactive: 0.989.
As for `CNC[C@H]1OCCCC[C@H](C)Oc2ccc(NS(=O)(=O)c3cn(C)cn3)cc2C(=O)N([C@H](C)CO)C[C@@H]1C`, the figure is inactive: 0.972.
Take `NC[C@@H]1CC(=O)N(c2ccccc2)C1`: the relative growth was inactive: 1.02.
As for `C[C@@H]1CN([C@H](C)CO)C(=O)c2c(c3ccccc3n2C)-c2ccccc2CO[C@@H]1CN(C)Cc1ccc(C(=O)O)cc1`, the figure is inactive: 0.997; as for `Cc1noc(C)c1S(=O)(=O)Nc1ccc2c(c1)C(=O)N([C@@H](C)CO)C[C@@H](C)[C@@H](CN(C)S(=O)(=O)c1cn(C)cn1)OCCCC[C@@H](C)O2`, inactive: 0.989; as for `C[C@@H]1CN([C@H](C)CO)C(=O)Cc2cc(NC(=O)Cn3cnnn3)ccc2O[C@H]1CN(C)C(=O)Nc1ccccc1`, inactive: 1.01.
The value for `COc1ccc([C@@H]([C@H](Cc2ccccc2)OC(C)=O)N2C[C@@H]3C(=NO[C@@H]3[C@@H](O)c3ccccc3)[C@@H]2Cc2ccccc2)cc1` was inactive: 1.01.
The value for `O=C(O[C@@H]1Cc2c(O)cc(O)cc2O[C@@H]1c1cc(O)c(O)c(O)c1-c1c([C@H]2Oc3cc(O)cc(O)c3C[C@H]2O)cc(O)c(O)c1O)c1cc(O)c(O)c(O)c1` was inactive: 1; that for `CCNC(=O)C[C@@H]1CC[C@@H]2[C@H](COc3ccc(NS(=O)(=O)c4ccccc4C)cc3C(=O)N2C)O1` was inactive: 1.
`COc1ccccc1C#Cc1ccc2c(c1)O[C@H](CN(C)Cc1cccnc1)[C@H](C)CN([C@@H](C)CO)S2(=O)=O`: the relative growth is inactive: 1.03.
The value for `COc1ccc2c3c(n(c2c1)C)[C@@H](CO)N(C[C@]13CN(C1)S(=O)(=O)c1ccc(cc1)C)S(=O)(=O)c1ccc(cc1)C` was inactive: 1.03.
